# Out of some 200,000 compounds screened, about 4,500 (2.2%) were called active. This list was built around the results that the source calls inconclusive (neither active nor inactive); the mix of calls is not that of the screen. Calls follow the shape of the dose curve; as a rule, active = well fitted inhibition curve with a large enough effect; inconclusive = small, poorly fitted or top-dose-only effect, or effect the other way; inactive = flat fitted curve, though single readings scatter. A potency beside an inconclusive call is a rough fit, not a confirmed value.
# Biological target: Cruzipain (Trypanosoma cruzi) (UniProt P25779)
# Sequence of UniProt P25779 (P25779 whole entry, looked up): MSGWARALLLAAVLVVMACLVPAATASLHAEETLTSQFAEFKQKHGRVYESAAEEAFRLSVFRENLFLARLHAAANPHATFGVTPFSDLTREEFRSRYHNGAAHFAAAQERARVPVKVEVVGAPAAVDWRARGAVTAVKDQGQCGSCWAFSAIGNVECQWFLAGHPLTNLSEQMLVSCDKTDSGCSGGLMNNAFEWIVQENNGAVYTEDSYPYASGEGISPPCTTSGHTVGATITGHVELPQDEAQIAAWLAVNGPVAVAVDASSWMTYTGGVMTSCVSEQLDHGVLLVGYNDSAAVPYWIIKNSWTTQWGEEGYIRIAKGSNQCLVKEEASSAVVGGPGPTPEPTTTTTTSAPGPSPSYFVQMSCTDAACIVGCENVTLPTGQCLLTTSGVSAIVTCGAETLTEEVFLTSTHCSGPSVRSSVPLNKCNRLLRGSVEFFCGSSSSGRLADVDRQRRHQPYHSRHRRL
# Test: qHTS Assay for Promiscuous and Specific Inhibitors of Cruzain (without detergent); also: nearly all actives have a fitted effect of over 40% in size;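 as to max response, negative = inhibition: plate controls were enzyme without inhibitor for no effect and buffer without enzyme for full effect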
# Settings: purified cruzain, Z-FR-AMC fluorescence, no detergent
# Method in brief: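 Detergent-free condition (0.00005% Triton X-100) in acetate buffer pH 5.5 with DTT. 1.5 nM enzyme and compound were pre-mixed 15 min, then 2 uM Z-FR-AMC substrate added; reaction progress from fluorescence change between first and third reads (60 s).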
# Potency is read from the fitted curve at half-maximal effect; tags tell the direction and shape of the fitted curve.
Structure (SMILES),"max response, negative = inhibition",Potency
Cc1ccc(CNC(=O)C2CCCN(Cc3nc(-c4cccc(C)c4)oc3C)C2)cc1 (configuration not stated),inactive: 23.6%,
COc1ccc(NC(=O)c2ccc(NC(=O)COC(=O)CC(NC(=O)c3ccccc3Cl)c3ccccc3)cc2)cc1 (configuration not stated),,"inconclusive: 25.1 µM [inhibitor, single point]"
O=C(O)Cc1ccc(NC(=O)c2ccc(NC(=O)c3ccco3)cc2)cc1,,"inconclusive: 39.8 µM [inhibitor, single point]"
COc1cccc(NCc2cc(=O)oc3cc(-c4ccccc4)c(O)cc23)c1,,"inconclusive: 39.8 µM [inhibitor, single point]"
COC(=O)C1=C(C)N(CC(C)C)C(=O)C1,,"inconclusive: 3.16 µM [inhibitor, single point]"
CCOC(=O)N1CCN(C(=O)c2sc3nc(-c4ccc(F)cc4)cn3c2C)CC1,,"inconclusive: 31.6 µM [activator, single point]"
Cc1ccc2oc(C(=O)Nc3ccc(S(=O)(=O)Nc4nc(C)cc(C)n4)cc3)cc(=O)c2c1,inactive: 0.349%,
CC(=O)N1C=CN(C(C)=O)C(c2cn(C)c3ccccc23)C1c1cn(C)c2ccccc12 (configuration not stated),,"inconclusive: 20 µM [activator, partial curve]"
CCOC(=O)c1cn(CC)c2ccc(S(=O)(=O)N3CCC(C)CC3)cc2c1=O,,"inconclusive: 31.6 µM [activator, single point]"
Cc1cc(C)c(NC(=O)COC(=O)c2ccc([N+](=O)[O-])s2)c(C)c1,,"inconclusive: 25.1 µM [inhibitor, single point]"
CC(C)Oc1ccc(CNS(=O)(=O)c2ccc(-c3cc(C(F)(F)F)on3)s2)cc1,,"inconclusive: 12.6 µM [inhibitor, partial curve]"
CC(Sc1nc(N)cc(=O)[nH]1)C(=O)Nc1cccc(Cl)c1 (configuration not stated),inactive: 8.56%,
CCOc1ccc(-c2nnc(SCC(=O)Nc3cccc(Cl)c3C)o2)cc1,,"inconclusive: 31.6 µM [inhibitor, single point]"
CCCNC(=O)CSc1cn(CC(=O)N2CCCCCC2)c2ccccc12,inactive: -10.3%,
COc1ccc(C(=O)OCc2cc(=O)n3nc(C4CC4)sc3n2)cc1OC,inactive: -12.3%,
O=C(OCC(=O)N1CCc2ccccc21)c1cccc(S(=O)(=O)N2CCCc3ccccc32)c1,,"inconclusive: 39.8 µM [inhibitor, single point]"
O=c1oc2c(CN3CCOCC3)c(O)ccc2c2c1CCCC2,,"inconclusive: 39.8 µM [inhibitor, single point]"
Cc1c(CC(=O)NCc2ccccc2Cl)c(=O)oc2cc(O)ccc12,,"inconclusive: 25.1 µM [activator, partial curve]"
O=C(NCCc1ccccc1)c1cc(-c2ccc(Cl)c(Cl)c2)on1,inactive: 0.391%,
Cc1csc2nc(-c3cccc(NC(=O)c4c(F)cccc4F)c3)cn12,,"inconclusive: 31.6 µM [inhibitor, single point]"
Cc1ccc(-c2csc(/C(C#N)=C(\O)CN3CCN(C(=O)c4ccco4)CC3)n2)cc1,,"inconclusive: 31.6 µM [activator, single point]"

Structure (SMILES),"max response, negative = inhibition",Potency
Cn1c(SC(C(=O)Nc2ccc(F)cc2)c2ccccc2)nc2ccccc21 (configuration not stated),,"inconclusive: 25.1 µM [inhibitor, single point]"
O=C(CCc1[nH]c2ccccc2c1Sc1ccccc1)NCCO,,"inconclusive: 39.8 µM [activator, single point]"
CCOC(=O)C1=C(N)n2c(s/c(=C\c3ccco3)c2=O)=C(C(=O)OC(C)C)C1c1ccco1 (configuration not stated),,active: 10 µM
CC(C)(C)c1ccc(C(=O)CC(=O)c2cc(Cl)ccc2O)cc1,,"inconclusive: 0.126 µM [inhibitor, full curve, poor fit]"
CCOc1ccc(C(=O)OCC(=O)Nc2cc(C)on2)cc1OCC,inactive: 28.9%,
CCn1c(CSCc2ccc(C)cc2)nnc1SCC(=O)N1CCN(c2ccccc2)CC1,,"inconclusive: 25.1 µM [activator, single point]"
CCn1c(C)cc(/C=C2\NC(=O)N(CC(=O)Nc3cccc(C)c3)C2=O)c1C,,"inconclusive: 39.8 µM [inhibitor, single point]"
COc1cc(CNc2ccc3[nH]c(=O)[nH]c3c2)cc(Cl)c1OCc1ccc(F)cc1,,"inconclusive: 39.8 µM [inhibitor, single point]"
O=C(COC(=O)c1c2c(nc3ccccc13)CCCC2)c1ccc(Br)s1,,"inconclusive: 15.8 µM [inhibitor, single point]"
Cc1nn(C(C)(C)C)c(OC(=O)c2c(F)cccc2F)c1Sc1ccccc1,inactive: 20.2%,
CCOC(=O)NC(NC(=S)Nc1ccc(OCC)cc1)C(Cl)(Cl)Cl (configuration not stated),,"inconclusive: 39.8 µM [inhibitor, single point]"
O=C(CCc1ccccc1)N1CCc2c([nH]c3ccccc23)C1c1ccc(F)cc1 (configuration not stated),,"inconclusive: 39.8 µM [inhibitor, single point]"
Cc1ccc(-c2nnc(SCC(=O)NC3CCS(=O)(=O)C3)nc2-c2ccc(C)cc2)cc1 (configuration not stated),,"inconclusive: 39.8 µM [activator, single point]"
COC(=O)[C@@]1(Cc2ccc(OC)cc2)[C@H]2c3cc(C(=O)N4CCCC4)n(Cc4cc(F)cc5c4OCOC5)c3C[C@H]2CN1C(=O)c1ccccc1,,"inconclusive: 25.1 µM [activator, single point]"
CCOc1cc(/C=C2/C(=O)N(c3ccccc3)N=C2C)ccc1OC(=O)c1ccco1,,"inconclusive: 39.8 µM [activator, single point]"
CCOc1ccc(CCNC(=O)c2ccc(CS(=O)Cc3ccc(Cl)cc3)o2)cc1 (configuration not stated),,"inconclusive: 31.6 µM [activator, single point]"
CCOC(=O)c1c(C)[nH]c(C)c1C(=O)COC(=O)[C@@H](NC(=O)c1ccccc1OCC)C(C)C,,"inconclusive: 39.8 µM [activator, single point]"
CCCCOc1ccc(C(=O)N(Cc2nc(-c3ccc(Cl)cc3)no2)C(C)C)cc1,inactive: -22.4%,
CC(C)=CCC/C(C)=C/CO,,"inconclusive: 39.8 µM [activator, single point]"
Cc1ccc(-c2noc(CCC(=O)Nc3ccc(C)cn3)n2)cc1,,active: 25.1 µM
O=C(NCCc1ccccn1)C(F)(F)C(F)(F)C(F)(F)C(F)(F)C(F)(F)C(F)(F)C(F)(F)C(F)F,,"inconclusive: 31.6 µM [activator, single point]"

Structure (SMILES),"max response, negative = inhibition",Potency
Cc1cc(C)n(CC(O)COc2cccc(OCC(O)Cn3nc(C)cc3C)c2)n1 (configuration not stated),,"inconclusive: 25.1 µM [activator, single point]"
COc1ccc(NC(=O)c2sc3nc[nH]c(=O)c3c2C)cc1OC,inactive: -2.89%,
N#CC(/C(=N/S(=O)(=O)c1cccs1)c1ccccc1)c1nc2ccccc2[nH]1 (configuration not stated),,"inconclusive: 39.8 µM [inhibitor, single point]"
Cc1ccc(OCC(=O)Nc2ccc3nc(SCC(=O)N(C)c4ccccc4)sc3c2)cc1,,"inconclusive: 0.631 µM [inhibitor, single point]"
Cc1ccccc1N=CC=C1OC(C)(C)C(C)(C)O1,,"inconclusive: 39.8 µM [activator, single point]"
COc1ccccc1/C=C1\SC(=S)N(CCC(=O)NC2=NCCS2)C1=O,,"inconclusive: 39.8 µM [inhibitor, single point]"
COC(=O)C1(C)C=C(Nc2ccc(OC)cc2)C(=O)N1c1ccc(OC)cc1 (configuration not stated),inactive: 8.96%,
COC(=O)N1C2(C=CC1(C)C(=O)NCc1ccc(N(C)C)cc1)CCCCC2 (configuration not stated),inactive: 0.206%,
COc1cc2ncc3c(-c4ccccc4)nn(-c4ccc(C)cc4)c3c2cc1OC,,"inconclusive: 31.6 µM [activator, single point]"
Cc1nn(Cc2c(Cl)cccc2Cl)c(Cl)c1/C=N/NC(=O)c1cccnc1,,"inconclusive: 25.1 µM [inhibitor, single point]"
CC(=O)c1cccc(NC(=O)c2ccc3nc(C(C)C)oc3c2)c1,inactive: -3.03%,
N#C/C(=C\c1ccc(-c2ccccc2Cl)o1)C(=O)Nc1nc2ccccc2s1,,"inconclusive: 3.16 µM [inhibitor, full curve, poor fit]"
CNC(=O)C1CC(=O)N(Cc2ccc(OC)c(OC)c2)C(=Nc2ccc(OC)cc2)S1 (configuration not stated),,"inconclusive: 31.6 µM [activator, single point]"
CCCOc1ccc(NC(=O)CC2C(=O)N(Cc3ccccc3)C(=S)N2Cc2cccs2)cc1 (configuration not stated),,"inconclusive: 25.1 µM [inhibitor, single point]"
Cc1ccc([N+](=O)[O-])cc1S(=O)(=O)N1CCn2cccc2C1c1ccc(F)c(F)c1 (configuration not stated),,"inconclusive: 31.6 µM [inhibitor, single point]"
CN1CC(=O)NC1=NC(=O)c1ccc(Cl)c(S(=O)(=O)N2CCCCCC2)c1,,"inconclusive: 39.8 µM [activator, single point]"
O=C(NC12CC3CC(CC(C3)C1)C2)c1ccc(-c2ccc(Cl)cc2)o1,,"inconclusive: 39.8 µM [inhibitor, single point]"
CC(C)(C)c1ccc(S(=O)(=O)NCc2ccc(C(=O)N3CCOCC3)cc2)cc1,,"inconclusive: 15.8 µM [activator, single point]"
CC1=CC(c2ccccc2)n2nc(NS(=O)(=O)c3ccc(C)cc3)nc2N1 (configuration not stated),,"inconclusive: 39.8 µM [activator, single point]"
Cc1ccc(C)c(CN2C(=O)c3ccccc3Sc3ccc(C(=O)NCc4ccc5c(c4)OCO5)cc32)c1,,active: 20 µM

# — PubChem BioAssay AID1476 (National Center for Advancing Translational Sciences (NCATS), 2009)
